# Test results published in patent US5440015A, “Selectin peptide medicaments for treating disease” (Glycomed Incorporated, priority 1993, dated 1995).
# pIC50: −log10 of the molar value. Where two headings read alike, the source gives them in different places. At least one peptide structure holds a part that was inferred or is arguable (an end, a ring closure or a residue). Residues, ends and D or L forms follow the SMILES beside them. No end group written: not given here.
# Legend:
# Format in all cases: cell-based
# [1] = system: HL-60 cells binding to human umbilical vein endothelial cells (HUVEC) stimulated to express E-selectin; assay: Inhibition of HUVEC/HL-60 cell binding; conditions: IL-1 beta stimulated HUVEC, myeloperoxidase readout
# P-selectin = assay: HL-60 cell binding to P-selectin (cell-selectin adhesion assay); conditions: HL-60 cell binding to P-selectin coated wells, 37° C. 1 hour; concentration giving half maximal fluorescence; FIG. 1
# E-selectin = assay: HL-60 cell binding to E-selectin (cell-selectin adhesion assay); conditions: HL-60 cell binding to E-selectin coated wells, 37° C. 1 hour; concentration giving half maximal fluorescence; FIG. 2
Molecule,"pIC50 ([1]; Expt 2, read-out: IC50, Expt 2)","pIC50 ([1]; Expt 3, read-out: IC50, Expt 3)",pIC50 (P-selectin),pIC50 (E-selectin),"pIC50 ([1]; Expt 1, read-out: IC50, Expt 1)"
CC[C@H](C)[C@H](N)C(=O)NCC(=O)N[C@H](C(=O)N[C@@H](CCCNC(=N)N)C(=O)O)[C@@H](C)CC [IGIR] (H-IGIR-OH),2.22,< 2.22,–,–,–
Ac-YYWIGIRK-NH2,–,–,~4.11,~3.99,–
IGIRK [IGIRK],–,2.70,–,–,–
WIGIR [WIGIR],3.40,< 3.00,–,–,–
WIGIRK [WIGIRK],3.00,3.00,–,–,3.40
YYWIGIRK [SEQ ID NO:2],4.60,4.60,–,–,–
